Results from PubChem BioAssay AID588591 (National Center for Advancing Translational Sciences (NCATS), 2011).
The whole screen tested about 390,000 compounds, of which about 4,700 (1.2%) were called active. Inconclusive means that the source gave no clear call. Such entries were picked first, then a sample of the others. Calls come from the whole dose curve; as a rule, active = well fitted inhibition curve with a large enough effect; inconclusive = small, poorly fitted or top-dose-only effect, or another doubt; inactive = no such curve, though single readings can be large or run the other way. Where the call is inconclusive, the potency comes from a doubtful curve fit.

These compounds were tested against DNA polymerase eta (Homo sapiens) (UniProt Q9Y253) (assay: qHTS for Inhibitors of Polymerase Eta). Conditions: recombinant Pol eta, fluorescent DNA replication assay; series mostly up to 114 µM.
Method in brief: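 Pol eta (10 nM) was preincubated with compounds for 15 min at room temperature, after which fluorescent replication substrate (50 nM final) was added to start the reaction. Fluorescence was read kinetically at 0 and 10 min.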
Potency is the fitted concentration of half-maximal effect; tags give direction and shape of the fitted curve.

UniProt Q9Y253, sequence (Q9Y253 whole entry, looked up): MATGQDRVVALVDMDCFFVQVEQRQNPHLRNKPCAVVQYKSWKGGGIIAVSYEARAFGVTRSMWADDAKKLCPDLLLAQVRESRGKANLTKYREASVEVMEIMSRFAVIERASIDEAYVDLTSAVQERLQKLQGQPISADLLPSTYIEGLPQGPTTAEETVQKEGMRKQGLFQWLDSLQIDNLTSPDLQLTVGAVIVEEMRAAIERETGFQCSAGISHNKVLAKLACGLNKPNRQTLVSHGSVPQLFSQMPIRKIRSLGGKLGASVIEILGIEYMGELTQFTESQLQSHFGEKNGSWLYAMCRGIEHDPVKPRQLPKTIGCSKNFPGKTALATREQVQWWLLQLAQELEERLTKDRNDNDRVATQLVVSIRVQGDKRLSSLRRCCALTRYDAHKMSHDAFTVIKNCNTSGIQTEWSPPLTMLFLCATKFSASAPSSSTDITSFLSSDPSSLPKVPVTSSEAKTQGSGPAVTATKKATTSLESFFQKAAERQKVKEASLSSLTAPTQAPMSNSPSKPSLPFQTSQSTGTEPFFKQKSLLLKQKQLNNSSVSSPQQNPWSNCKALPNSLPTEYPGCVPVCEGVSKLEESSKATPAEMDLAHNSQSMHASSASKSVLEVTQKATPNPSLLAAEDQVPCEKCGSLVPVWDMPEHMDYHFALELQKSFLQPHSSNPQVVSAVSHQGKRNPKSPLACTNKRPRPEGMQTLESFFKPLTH

**Q.** With O=C(COc1ccc(Cl)cc1)Nc1sc2c(c1C(=O)Nc1cccc(Cl)c1)CCCC2 as the compound, how does the Potency read?
**A.** inactive

**Q.** How did the Potency turn out when C=CCn1c(SCC(=O)N2CCOCC2)nc2scc(-c3ccco3)c2c1=O was run?
**A.** active: 31.6 µM

**Q.** Which Potency does the source give for CN(C)c1ccc(-c2ccc3c(=O)c4ccccc4n(C)c3c2)cn1 here?
**A.** active: 20 µM

**Q.** With COc1cc(Nc2nc3c(N)cc(C(F)(F)F)cc3nc2-c2ccccc2)cc(OC)c1OC as the compound, how does the Potency read?
**A.** inconclusive: 39.8 µM [inhibitor, partial curve, poor fit]

**Q.** Which Potency does the source give for O=[N+]([O-])c1cc(S(=O)(=O)O)cc([N+](=O)[O-])c1NN(c1ccccc1)c1ccccc1 here?
**A.** inconclusive: 44.7 µM [inhibitor, partial curve]

**Q.** With Ic1ccc(N2CCN(Cc3c[nH]c4ncccc34)CC2)cc1 as the compound, how does the Potency read?
**A.** inconclusive: 31.6 µM [inhibitor, single point]

**Q.** With O=C(O)CCCN1C(=O)/C(=C\c2ccccc2OCc2ccccc2)SC1=S as the compound, how does the Potency read?
**A.** active: 79.4 µM

**Q.** Which Potency does the source give for Cc1ccc(S(=O)(=O)NCC(=O)OCC(=O)c2ccc(Br)s2)cc1 here?
**A.** inconclusive: 25.1 µM [inhibitor, partial curve]

**Q.** With CCOc1ccc(NC(=O)CN2CCN(Cc3ccccc3)S2(=O)=O)cc1 as the compound, how does the Potency read?
**A.** inactive

**Q.** CCN(CC)S(=O)(=O)c1cc(C(=O)OCC(=O)NC(=O)c2cccn2C)ccc1C was tested. Which Potency did it give?
**A.** inconclusive: 25.1 µM [inhibitor, partial curve]

**Q.** How did the Potency turn out when Cc1nc2c(C(=O)NCc3ccccc3Cl)c[nH]n2c(=O)c1Cc1cccc(Cl)c1 was run?
**A.** inconclusive: 89.1 µM [inhibitor, single point]

**Q.** With CCOC(=O)C1=C(C)OC(N)=C(C#N)C1c1cc2c(cc1[N+](=O)[O-])OCO2 (stereo unspecified) as the compound, how does the Potency read?
**A.** inconclusive: 25.1 µM [inhibitor, partial curve]

**Q.** How did the Potency turn out when CCC(NC(=O)c1ccccc1NC(=O)c1ccco1)C(=O)NNC(=O)c1ccc(OC)cc1 (stereo unspecified) was run?
**A.** inconclusive: 22.4 µM [inhibitor, full curve, poor fit]

**Q.** With COc1ccc(-c2cc(C(=O)N3CCN(c4ccccc4)CC3)no2)cc1OC as the compound, how does the Potency read?
**A.** inconclusive: 56.2 µM [inhibitor, partial curve, poor fit]

**Q.** How did the Potency turn out when CC1(C)Cc2c(C#N)c(NCCc3ccccc3)nc(-c3ccco3)c2CO1 was run?
**A.** active: 89.1 µM

**Q.** Which Potency does the source give for Cn1cnc(S(=O)(=O)N2CCCC(C(=O)NCc3ccccc3Cl)C2)c1 (stereo unspecified) here?
**A.** inactive

**Q.** How did the Potency turn out when CCOc1ccccc1NC(=O)Cc1coc2c(C)c(C)ccc12 was run?
**A.** inconclusive: 89.1 µM [inhibitor, partial curve, poor fit]

**Q.** With O=C(NCC(=O)N1CC=C(c2ccccc2)CC1)c1ccc(F)cc1 as the compound, how does the Potency read?
**A.** inactive

**Q.** With COc1ccccc1-c1nnc2sc(-c3cnccn3)nn12 as the compound, how does the Potency read?
**A.** active: 44.7 µM

**Q.** Which Potency does the source give for O=C(COc1ccc2ccccc2c1)NNC(=O)c1ccc([N+](=O)[O-])cc1 here?
**A.** active: 79.4 µM

**Q.** Which Potency does the source give for CCC(=O)Nc1cccc(C(=O)/C=C/c2ccc(F)cc2)c1 here?
**A.** inconclusive: 63.1 µM [inhibitor, partial curve, poor fit]

**Q.** COC(=O)c1ccc(S(=O)(=O)N2CCCCCC2)cc1 was tested. Which Potency did it give?
**A.** inactive

**Q.** How did the Potency turn out when CC(=O)c1sc2nc(-c3ccco3)ccc2c1N was run?
**A.** active: 28.2 µM

**Q.** Which Potency does the source give for S=c1[nH]nc(-c2ccccc2)n1/N=C/c1ccc(Cl)cc1 here?
**A.** inconclusive: 28.2 µM [inhibitor, partial curve, poor fit]

**Q.** For Cc1cc(=O)[nH]c2nnc(SCc3ccc(Cl)c(Cl)c3)n12, which Potency is on record?
**A.** inactive

**Q.** Which Potency does the source give for Cc1c(C(=O)Nc2nc(-c3ccc(F)cc3)ns2)oc2ccc(Br)cc12 here?
**A.** inactive

**Q.** Which Potency does the source give for COc1ccc(-c2nc3c4ccccc4ccn3c2CN2CCCCC2)cc1OC here?
**A.** inconclusive: 79.4 µM [inhibitor, partial curve, poor fit]

**Q.** O=C1Cc2cc(S(=O)(=O)Nc3ccc(N4CCOCC4)cc3)ccc2N1 was tested. Which Potency did it give?
**A.** inconclusive: 35.5 µM [inhibitor, single point]

**Q.** Which Potency does the source give for Clc1ccccc1/C=C/c1ccnc2ccccc12 here?
**A.** inconclusive: 31.6 µM [inhibitor, single point]

**Q.** CC[C@]12c3[nH]c4ccc(Cl)cc4c3CCN1C(=O)[C@@H](CC(=O)NCc1cccc(C(F)(F)F)c1)C[C@@H]2C(=O)N1CCN(C(=O)C2CC2)CC1 was tested. Which Potency did it give?
**A.** inconclusive: 79.4 µM [inhibitor, partial curve, poor fit]

**Q.** Which Potency does the source give for CC(=C/c1ccco1)/C=N/NC(=O)CSc1nnc(SCc2ccc(C)cc2)s1 here?
**A.** inconclusive: 20 µM [inhibitor, partial curve, poor fit]

**Q.** COc1ccc(C(CNC(=O)c2ccco2)N2CCOCC2)cc1 (stereo unspecified) was tested. Which Potency did it give?
**A.** inconclusive: 100 µM [inhibitor, partial curve, poor fit]

**Q.** How did the Potency turn out when CCC(C)c1ccc(NC(=O)COC(=O)C2CCCC2)cc1 (stereo unspecified) was run?
**A.** inconclusive: 89.1 µM [inhibitor, partial curve, poor fit]

**Q.** How did the Potency turn out when COc1cc(/C=C2/CC/C(=C/c3ccc(O)c(OC)c3)C2=O)ccc1O was run?
**A.** active: 35.5 µM

**Q.** Cc1cc(C)c2c(c1)-c1cc(C)nn1C(c1ccc3c(c1)OCO3)N2 (stereo unspecified) was tested. Which Potency did it give?
**A.** inconclusive: 50.1 µM [inhibitor, partial curve, poor fit]

**Q.** NC(=O)c1ccsc1NC(=O)COC(=O)c1ccc(Cl)c(N)c1 was tested. Which Potency did it give?
**A.** active: 22.4 µM

**Q.** Which Potency does the source give for COc1ccc(-c2ccc3c(=O)cc(-c4ccsc4)oc3c2)cn1 here?
**A.** inconclusive: 25.1 µM [inhibitor, full curve]

**Q.** For NC(=O)c1ccc(NC(=O)CSC2=Nc3ccccc3C3CC=NN23)cc1 (stereo unspecified), which Potency is on record?
**A.** inconclusive: 25.1 µM [inhibitor, partial curve, poor fit]

**Q.** With N=C1C2=C3Sc4ccccc4N3CCCC2=NN1c1cccc(S(=O)(=O)O)c1 as the compound, how does the Potency read?
**A.** inconclusive: 56.2 µM [inhibitor, partial curve, poor fit]

**Q.** Which Potency does the source give for CCOc1ccccc1NC(=O)c1c(NC(=O)CCC(=O)O)sc2c1CCCCC2 here?
**A.** inconclusive: 89.1 µM [inhibitor, single point]

**Q.** How did the Potency turn out when N#CC1=C(N)Oc2c(sc3ccccc23)C1c1ccco1 (stereo unspecified) was run?
**A.** inconclusive: 11.2 µM [inhibitor, partial curve, poor fit]

**Q.** CCc1ccccc1NC(=O)COc1ccc2oc(-c3ccc(OC)cc3)cc(=O)c2c1 was tested. Which Potency did it give?
**A.** inconclusive: 56.2 µM [inhibitor, partial curve, poor fit]

**Q.** With NS(=O)(=O)c1ccc(NCc2ccccc2OCc2ccccc2F)cc1 as the compound, how does the Potency read?
**A.** inactive

**Q.** For COc1cc(OC)c([N+](=O)[O-])cc1/C=N/NC(=O)c1ccncc1, which Potency is on record?
**A.** active: 31.6 µM

**Q.** With COc1cc(C2C(C#N)=C(N)Oc3cc(C)oc(=O)c32)cc2c1OCO2 (stereo unspecified) as the compound, how does the Potency read?
**A.** inconclusive: 56.2 µM [inhibitor, partial curve, poor fit]

**Q.** For Cc1ccc(S(=O)(=O)NCC(Nc2cccc(Cl)c2)c2ccccc2)cc1 (stereo unspecified), which Potency is on record?
**A.** inactive

**Q.** O=C(c1ccco1)c1n[nH]nc1-c1ccccc1 was tested. Which Potency did it give?
**A.** inconclusive: 22.4 µM [inhibitor, single point]

**Q.** How did the Potency turn out when CCC(C)NC(=O)Cn1c(=O)n(-c2ccc(C)c(C)c2)c(=O)c2c(C)c(C(=O)N(CC)CC)sc21 (stereo unspecified) was run?
**A.** inactive

**Q.** Which Potency does the source give for CCOC(=O)CSc1nc2cc3c(cc2cc1CC)OCCO3 here?
**A.** inconclusive: 44.7 µM [inhibitor, partial curve, poor fit]

**Q.** For O=C1/C(=C/c2ccco2)SC(=S)N1CCC(=O)N1CCCCC1CCO (stereo unspecified), which Potency is on record?
**A.** active: 22.4 µM

**Q.** How did the Potency turn out when Cc1ccccc1CSCC(=O)NC(=O)NCc1ccco1 was run?
**A.** inconclusive: 56.2 µM [inhibitor, partial curve, poor fit]

**Q.** For O=c1cc(-c2ccccc2)n2c(SCc3ccc(Br)cc3)nnc2[nH]1, which Potency is on record?
**A.** inactive

**Q.** Which Potency does the source give for CCOc1ccccc1NC(=O)CSC1=Nc2ccccc2C2=NC(CC(=O)NCc3ccc4c(c3)OCO4)C(=O)N12 (stereo unspecified) here?
**A.** inconclusive: 89.1 µM [inhibitor, single point]

**Q.** CC1CN(S(=O)(=O)c2cccc(C(=O)OCC(=O)c3cccs3)c2)CC(C)O1 (stereo unspecified) was tested. Which Potency did it give?
**A.** inconclusive: 25.1 µM [inhibitor, single point]

**Q.** With O=c1[nH]c(CSc2nnc3ccccn23)nc2ccccc12 as the compound, how does the Potency read?
**A.** inconclusive: 89.1 µM [inhibitor, partial curve, poor fit]

**Q.** For CC(C)(C)c1cc(-c2csc(Nc3ccccc3)[n+]2Cc2ccc(C(=O)O)cc2)cc(C(C)(C)C)c1O, which Potency is on record?
**A.** active: 31.6 µM

**Q.** For COc1ccc(/C(O)=C2/C(=O)C(=O)N(c3ccccn3)C2c2ccc(C(C)C)cc2)cc1 (stereo unspecified), which Potency is on record?
**A.** inconclusive: 39.8 µM [inhibitor, single point]

**Q.** For CCCS(=O)(=O)N1CCC(N2CCN(Cc3ccc(F)cc3)C(=O)C2=O)CC1, which Potency is on record?
**A.** inactive

**Q.** With N#CC1=C(c2ccc(-c3ccccc3)cc2)COC1=O as the compound, how does the Potency read?
**A.** active: 89.1 µM

**Q.** For CCC1CCCCN1C(=O)Cn1nc([N+](=O)[O-])c(Cl)c1C (stereo unspecified), which Potency is on record?
**A.** active: 89.1 µM

**Q.** How did the Potency turn out when Cc1ccc(Cc2cnc(N)s2)o1 was run?
**A.** active: 79.4 µM

**Q.** With Cc1cc(C(c2cc(C)c(N)c(C)c2)c2ccco2)cc(C)c1N as the compound, how does the Potency read?
**A.** inconclusive: 39.8 µM [inhibitor, partial curve, poor fit]

**Q.** Which Potency does the source give for O=C(Nc1cccc(C(=O)Nc2ccc(S(=O)(=O)O)c3cc(S(=O)(=O)O)cc(S(=O)(=O)O)c23)c1)Nc1cccc(C(=O)Nc2ccc(S(=O)(=O)O)c3cc(S(=O)(=O)O)cc(S(=O)(=O)O)c23)c1 here?
**A.** active: 1.78 µM

**Q.** With COc1cc(/C=N/NC(=O)c2cnn3c(C)cc(-c4ccccc4)nc23)ccc1O as the compound, how does the Potency read?
**A.** inconclusive: 17.8 µM [inhibitor, partial curve, poor fit]

**Q.** COc1ccc(C(CC(=O)N2CCCC2)c2c(OC)cc(OC)c3c(-c4ccccc4)cc(=O)oc23)cc1 (stereo unspecified) was tested. Which Potency did it give?
**A.** inconclusive: 20 µM [inhibitor, full curve, poor fit]

**Q.** Which Potency does the source give for Cc1cccc(OC(=O)c2cc(-c3ccc4c(c3)OCCO4)on2)c1C here?
**A.** inactive
